# Test results taken from article PMC12820563, “FoxP3 forms a head-to-head dimer in vivo and stabilizes its multimerization on adjacent microsatellites”.
# This is one part of the list.
# Biological target: T1, MBP-FoxP1dN (Mus musculus, UniProt P58462 326-579)
# T1 sequence: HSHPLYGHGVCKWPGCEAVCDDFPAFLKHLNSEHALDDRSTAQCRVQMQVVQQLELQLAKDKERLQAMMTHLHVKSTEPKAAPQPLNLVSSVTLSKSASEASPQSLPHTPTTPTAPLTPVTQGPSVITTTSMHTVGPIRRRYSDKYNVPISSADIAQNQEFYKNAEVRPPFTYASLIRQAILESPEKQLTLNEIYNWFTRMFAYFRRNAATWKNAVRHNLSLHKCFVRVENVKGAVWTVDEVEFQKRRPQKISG
# Assay: PD-seq (MBP pull-down with sequencing); 20 mM Tris-HCl pH 7.5, 100 mM NaCl, 1.5 mM MgCl2, 0.4 uM protein, 0.1 uM dsDNA library, 30 min, room temperature, amylose pull-down; high values mean tight binding
# Settings: protein: recombinant; tags: His6-MBP; chain copies: 2; dsDNA, one strand shown
# Method in brief: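 Binding is the reads-per-million enrichment of pull-down relative to input, pooled across replicates. For this, 0.4 µM His6-MBP-tagged mouse FoxP3 or FoxP1 fragment lacking the N-terminus, made in E. coli, was incubated with 0.1 µM Klenow-filled double-stranded degenerate DNA library for 30 min at room temperature in Tris pH 7.5 buffer with NaCl and MgCl2. Complexes bound to amylose resin were washed three times before proteinase K released the DNA for PCR barcoding and Illumina sequencing.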
row,Sequence,binding signal
1,GATGATTGTTCTCCCAGCTGATGAATTTTATACATCGAGTAAACAAATTTTCCTAATCTTTCTGTTCAAGCGCCATCTAC,1.09 RPM ratio (pull-down/input)
2,GATGATTGTTCTCCCAGCTGATGAATTGCAGCTATCGAGTAAACAAATTTTCCTAATCTTTCTGTTCAAGCGCCATCTAC,1.15 RPM ratio (pull-down/input)
3,GATGATTGTTCTCCCAGCTGATGAATTCATATGCTCGAGTAAACAAATTTTCCTAATCTTTCTGTTCAAGCGCCATCTAC,0.976 RPM ratio (pull-down/input)
4,GATGATTGTTCTCCCAGCTGATGAATTCTCGTATTCGAGTAAACAAATTTTCCTAATCTTTCTGTTCAAGCGCCATCTAC,1.04 RPM ratio (pull-down/input)
5,GATGATTGTTCTCCCAGCTGATGAATTCTATGGATCGAGTAAACAAATTTTCCTAATCTTTCTGTTCAAGCGCCATCTAC,0.847 RPM ratio (pull-down/input)
6,GATGATTGTTCTCCCAGCTGATGAATTGGACTAATCGAGTAAACAAATTTTCCTAATCTTTCTGTTCAAGCGCCATCTAC,0.999 RPM ratio (pull-down/input)
7,GATGATTGTTCTCCCAGCTGATGAATTAATTCGTTCGAGTAAACAAATTTTCCTAATCTTTCTGTTCAAGCGCCATCTAC,0.915 RPM ratio (pull-down/input)
8,GATGATTGTTCTCCCAGCTGATGAATTCATGTTTTCGAGTAAACAAATTTTCCTAATCTTTCTGTTCAAGCGCCATCTAC,2.2 RPM ratio (pull-down/input)
9,GATGATTGTTCTCCCAGCTGATGAATTCGCCAGGTCGAGTAAACAAATTTTCCTAATCTTTCTGTTCAAGCGCCATCTAC,0.761 RPM ratio (pull-down/input)
10,GATGATTGTTCTCCCAGCTGATGAATTACCGTGTTCGAGTAAACAAATTTTCCTAATCTTTCTGTTCAAGCGCCATCTAC,0.981 RPM ratio (pull-down/input)
11,GATGATTGTTCTCCCAGCTGATGAATTGCCGACGTCGAGTAAACAAATTTTCCTAATCTTTCTGTTCAAGCGCCATCTAC,0.952 RPM ratio (pull-down/input)
12,GATGATTGTTCTCCCAGCTGATGAATTCTTAACCTCGAGTAAACAAATTTTCCTAATCTTTCTGTTCAAGCGCCATCTAC,0.837 RPM ratio (pull-down/input)
13,GATGATTGTTCTCCCAGCTGATGAATTGGCACGTTCGAGTAAACAAATTTTCCTAATCTTTCTGTTCAAGCGCCATCTAC,0.908 RPM ratio (pull-down/input)
14,GATGATTGTTCTCCCAGCTGATGAATTGGGTACATCGAGTAAACAAATTTTCCTAATCTTTCTGTTCAAGCGCCATCTAC,1.01 RPM ratio (pull-down/input)
15,GATGATTGTTCTCCCAGCTGATGAATTGGATTGATCGAGTAAACAAATTTTCCTAATCTTTCTGTTCAAGCGCCATCTAC,0.946 RPM ratio (pull-down/input)
16,GATGATTGTTCTCCCAGCTGATGAATTATTTAGATCGAGTAAACAAATTTTCCTAATCTTTCTGTTCAAGCGCCATCTAC,1.57 RPM ratio (pull-down/input)
17,GATGATTGTTCTCCCAGCTGATGAATTTTCCGGATCGAGTAAACAAATTTTCCTAATCTTTCTGTTCAAGCGCCATCTAC,0.817 RPM ratio (pull-down/input)
18,GATGATTGTTCTCCCAGCTGATGAATTTGGCAACTCGAGTAAACAAATTTTCCTAATCTTTCTGTTCAAGCGCCATCTAC,1.03 RPM ratio (pull-down/input)
19,GATGATTGTTCTCCCAGCTGATGAATTGAAATCGTCGAGTAAACAAATTTTCCTAATCTTTCTGTTCAAGCGCCATCTAC,0.824 RPM ratio (pull-down/input)
20,GATGATTGTTCTCCCAGCTGATGAATTAGTGTCGTCGAGTAAACAAATTTTCCTAATCTTTCTGTTCAAGCGCCATCTAC,0.949 RPM ratio (pull-down/input)
21,GATGATTGTTCTCCCAGCTGATGAATTGGAGAACTCGAGTAAACAAATTTTCCTAATCTTTCTGTTCAAGCGCCATCTAC,0.834 RPM ratio (pull-down/input)

row,Sequence,binding signal
1,GATGATTGTTCTCCCAGCTGATGAATTTACCTGATCGAGTAAACAAATTTTCCTAATCTTTCTGTTCAAGCGCCATCTAC,1.21 RPM ratio (pull-down/input)
2,GATGATTGTTCTCCCAGCTGATGAATTGGGTGGCTCGAGTAAACAAATTTTCCTAATCTTTCTGTTCAAGCGCCATCTAC,0.802 RPM ratio (pull-down/input)
3,GATGATTGTTCTCCCAGCTGATGAATTGCAGGGATCGAGTAAACAAATTTTCCTAATCTTTCTGTTCAAGCGCCATCTAC,1.01 RPM ratio (pull-down/input)
4,GATGATTGTTCTCCCAGCTGATGAATTTTCCTAATCGAGTAAACAAATTTTCCTAATCTTTCTGTTCAAGCGCCATCTAC,1.12 RPM ratio (pull-down/input)
5,GATGATTGTTCTCCCAGCTGATGAATTGATCGCCTCGAGTAAACAAATTTTCCTAATCTTTCTGTTCAAGCGCCATCTAC,0.991 RPM ratio (pull-down/input)
6,GATGATTGTTCTCCCAGCTGATGAATTTGGGAGGTCGAGTAAACAAATTTTCCTAATCTTTCTGTTCAAGCGCCATCTAC,0.799 RPM ratio (pull-down/input)
7,GATGATTGTTCTCCCAGCTGATGAATTGCCGTCGTCGAGTAAACAAATTTTCCTAATCTTTCTGTTCAAGCGCCATCTAC,0.968 RPM ratio (pull-down/input)
8,GATGATTGTTCTCCCAGCTGATGAATTTTAAAGTTCGAGTAAACAAATTTTCCTAATCTTTCTGTTCAAGCGCCATCTAC,0.837 RPM ratio (pull-down/input)
9,GATGATTGTTCTCCCAGCTGATGAATTTATTCTTTCGAGTAAACAAATTTTCCTAATCTTTCTGTTCAAGCGCCATCTAC,1.34 RPM ratio (pull-down/input)
10,GATGATTGTTCTCCCAGCTGATGAATTCATCGATTCGAGTAAACAAATTTTCCTAATCTTTCTGTTCAAGCGCCATCTAC,0.861 RPM ratio (pull-down/input)
11,GATGATTGTTCTCCCAGCTGATGAATTACAACTGTCGAGTAAACAAATTTTCCTAATCTTTCTGTTCAAGCGCCATCTAC,1.35 RPM ratio (pull-down/input)
12,GATGATTGTTCTCCCAGCTGATGAATTTGCTTACTCGAGTAAACAAATTTTCCTAATCTTTCTGTTCAAGCGCCATCTAC,1.69 RPM ratio (pull-down/input)
13,GATGATTGTTCTCCCAGCTGATGAATTAGTGCCCTCGAGTAAACAAATTTTCCTAATCTTTCTGTTCAAGCGCCATCTAC,0.849 RPM ratio (pull-down/input)
14,GATGATTGTTCTCCCAGCTGATGAATTGCGTAGCTCGAGTAAACAAATTTTCCTAATCTTTCTGTTCAAGCGCCATCTAC,0.949 RPM ratio (pull-down/input)
15,GATGATTGTTCTCCCAGCTGATGAATTTCGTGGGTCGAGTAAACAAATTTTCCTAATCTTTCTGTTCAAGCGCCATCTAC,0.786 RPM ratio (pull-down/input)
16,GATGATTGTTCTCCCAGCTGATGAATTTTGCTAATCGAGTAAACAAATTTTCCTAATCTTTCTGTTCAAGCGCCATCTAC,1.06 RPM ratio (pull-down/input)
17,GATGATTGTTCTCCCAGCTGATGAATTCGGTCACTCGAGTAAACAAATTTTCCTAATCTTTCTGTTCAAGCGCCATCTAC,0.835 RPM ratio (pull-down/input)
18,GATGATTGTTCTCCCAGCTGATGAATTGTCTCTCTCGAGTAAACAAATTTTCCTAATCTTTCTGTTCAAGCGCCATCTAC,1.03 RPM ratio (pull-down/input)
19,GATGATTGTTCTCCCAGCTGATGAATTCCAAATATCGAGTAAACAAATTTTCCTAATCTTTCTGTTCAAGCGCCATCTAC,1.22 RPM ratio (pull-down/input)
20,GATGATTGTTCTCCCAGCTGATGAATTTAGATTCTCGAGTAAACAAATTTTCCTAATCTTTCTGTTCAAGCGCCATCTAC,0.988 RPM ratio (pull-down/input)
21,GATGATTGTTCTCCCAGCTGATGAATTGACATATTCGAGTAAACAAATTTTCCTAATCTTTCTGTTCAAGCGCCATCTAC,1.29 RPM ratio (pull-down/input)

row,Sequence,binding signal
1,GATGATTGTTCTCCCAGCTGATGAATTTTGAATCTCGAGTAAACAAATTTTCCTAATCTTTCTGTTCAAGCGCCATCTAC,0.828 RPM ratio (pull-down/input)
2,GATGATTGTTCTCCCAGCTGATGAATTCAATTTGTCGAGTAAACAAATTTTCCTAATCTTTCTGTTCAAGCGCCATCTAC,1.07 RPM ratio (pull-down/input)
3,GATGATTGTTCTCCCAGCTGATGAATTTCCGGAGTCGAGTAAACAAATTTTCCTAATCTTTCTGTTCAAGCGCCATCTAC,0.774 RPM ratio (pull-down/input)
4,GATGATTGTTCTCCCAGCTGATGAATTATTGCGTTCGAGTAAACAAATTTTCCTAATCTTTCTGTTCAAGCGCCATCTAC,1.28 RPM ratio (pull-down/input)
5,GATGATTGTTCTCCCAGCTGATGAATTTCATACCTCGAGTAAACAAATTTTCCTAATCTTTCTGTTCAAGCGCCATCTAC,0.855 RPM ratio (pull-down/input)
6,GATGATTGTTCTCCCAGCTGATGAATTAAACACGTCGAGTAAACAAATTTTCCTAATCTTTCTGTTCAAGCGCCATCTAC,1.21 RPM ratio (pull-down/input)
7,GATGATTGTTCTCCCAGCTGATGAATTGAGCTTGTCGAGTAAACAAATTTTCCTAATCTTTCTGTTCAAGCGCCATCTAC,0.829 RPM ratio (pull-down/input)
8,GATGATTGTTCTCCCAGCTGATGAATTATAACTTTCGAGTAAACAAATTTTCCTAATCTTTCTGTTCAAGCGCCATCTAC,1.02 RPM ratio (pull-down/input)
9,GATGATTGTTCTCCCAGCTGATGAATTATCTCGCTCGAGTAAACAAATTTTCCTAATCTTTCTGTTCAAGCGCCATCTAC,0.965 RPM ratio (pull-down/input)
10,GATGATTGTTCTCCCAGCTGATGAATTAGACTTATCGAGTAAACAAATTTTCCTAATCTTTCTGTTCAAGCGCCATCTAC,0.957 RPM ratio (pull-down/input)
11,GATGATTGTTCTCCCAGCTGATGAATTGGTACGATCGAGTAAACAAATTTTCCTAATCTTTCTGTTCAAGCGCCATCTAC,1 RPM ratio (pull-down/input)
12,GATGATTGTTCTCCCAGCTGATGAATTCAGAGCGTCGAGTAAACAAATTTTCCTAATCTTTCTGTTCAAGCGCCATCTAC,0.834 RPM ratio (pull-down/input)
13,GATGATTGTTCTCCCAGCTGATGAATTGATTCACTCGAGTAAACAAATTTTCCTAATCTTTCTGTTCAAGCGCCATCTAC,1.03 RPM ratio (pull-down/input)
14,GATGATTGTTCTCCCAGCTGATGAATTCTCCTTATCGAGTAAACAAATTTTCCTAATCTTTCTGTTCAAGCGCCATCTAC,0.861 RPM ratio (pull-down/input)
15,GATGATTGTTCTCCCAGCTGATGAATTTTGGGGTTCGAGTAAACAAATTTTCCTAATCTTTCTGTTCAAGCGCCATCTAC,0.812 RPM ratio (pull-down/input)
16,GATGATTGTTCTCCCAGCTGATGAATTACATAGTTCGAGTAAACAAATTTTCCTAATCTTTCTGTTCAAGCGCCATCTAC,1.21 RPM ratio (pull-down/input)
17,GATGATTGTTCTCCCAGCTGATGAATTTCTCCTCTCGAGTAAACAAATTTTCCTAATCTTTCTGTTCAAGCGCCATCTAC,0.835 RPM ratio (pull-down/input)
18,GATGATTGTTCTCCCAGCTGATGAATTTTGGCTCTCGAGTAAACAAATTTTCCTAATCTTTCTGTTCAAGCGCCATCTAC,0.802 RPM ratio (pull-down/input)
19,GATGATTGTTCTCCCAGCTGATGAATTGGGAAGGTCGAGTAAACAAATTTTCCTAATCTTTCTGTTCAAGCGCCATCTAC,0.786 RPM ratio (pull-down/input)
20,GATGATTGTTCTCCCAGCTGATGAATTCAATCTCTCGAGTAAACAAATTTTCCTAATCTTTCTGTTCAAGCGCCATCTAC,0.857 RPM ratio (pull-down/input)
21,GATGATTGTTCTCCCAGCTGATGAATTTTACGTTTCGAGTAAACAAATTTTCCTAATCTTTCTGTTCAAGCGCCATCTAC,0.852 RPM ratio (pull-down/input)
